According to the supplement of paper PMC3334620:
The full ranking holds about 33,000 sequences; the median of “E-score (-0.5 to 0.5)” is about -0.012, and the highest 2% start at about 0.29. The list shows a part of the results.

Target: T1, Ybr033w (UniProt P38073)
T1 sequence: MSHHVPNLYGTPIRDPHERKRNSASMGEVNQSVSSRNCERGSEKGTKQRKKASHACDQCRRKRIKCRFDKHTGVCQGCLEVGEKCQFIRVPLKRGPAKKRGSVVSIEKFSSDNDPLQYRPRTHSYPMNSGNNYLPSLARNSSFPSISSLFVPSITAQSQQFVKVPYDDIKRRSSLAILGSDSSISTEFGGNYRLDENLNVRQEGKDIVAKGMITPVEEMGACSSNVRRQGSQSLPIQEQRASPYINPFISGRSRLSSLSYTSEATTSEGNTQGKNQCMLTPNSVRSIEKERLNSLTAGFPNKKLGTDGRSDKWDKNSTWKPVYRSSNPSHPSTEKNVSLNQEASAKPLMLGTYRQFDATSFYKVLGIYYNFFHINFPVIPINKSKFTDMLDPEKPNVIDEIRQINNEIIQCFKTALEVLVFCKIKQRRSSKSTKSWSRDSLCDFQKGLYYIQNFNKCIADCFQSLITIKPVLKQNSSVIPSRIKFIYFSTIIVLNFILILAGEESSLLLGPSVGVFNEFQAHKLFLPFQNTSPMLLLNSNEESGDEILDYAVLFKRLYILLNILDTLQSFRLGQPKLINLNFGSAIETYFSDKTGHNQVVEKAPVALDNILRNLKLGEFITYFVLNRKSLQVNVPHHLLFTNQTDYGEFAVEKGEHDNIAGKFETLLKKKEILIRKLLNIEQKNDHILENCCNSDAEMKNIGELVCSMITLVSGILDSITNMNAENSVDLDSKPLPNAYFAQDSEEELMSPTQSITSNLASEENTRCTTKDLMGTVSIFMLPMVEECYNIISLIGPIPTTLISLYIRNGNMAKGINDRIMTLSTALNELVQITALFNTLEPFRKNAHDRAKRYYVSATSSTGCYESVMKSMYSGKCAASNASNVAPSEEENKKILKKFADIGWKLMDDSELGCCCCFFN
Test: PBM E-score (8-mer binding enrichment) (E-score (-0.5 to 0.5)); higher = stronger / more preferred TF binding; most listed sequences are background and not binding sites
Settings: protein concentration: 200 nM; construct: GST-full length
Procedure, shortened: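 Universal all-10-mer Agilent arrays, fresh or stripped once, were converted to double-stranded form by primer extension. GST-tagged yeast transcription factors from PURExpress in vitro transcription/translation, full-length or DNA-binding domain only, were applied at about 100-200 nM and detected with fluorescent anti-GST. After masliner normalisation, the Universal PBM Analysis Suite scored each ungapped eight-base word together with its reverse complement by E-score.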

Sequence | PBM E-score
ACAGGCAT | -0.2
AGGATCGA | -0.143
AGCCGGAG | 0.161
CCTGAACC | 0.0631
GTATACAC | 0.00773
ATGGCGTC | -0.128
AAACGTGC | -0.156
CGAATTAA | 0.112
CCATGTCG | -0.0501
AGCTTCCG | -0.00753
CCGGACCA | -0.0432
ACAAGCCC | -0.204
AAGTATAT | 0.302
ACTTGCGA | 0.196
ATCAGTAG | -0.012
ATCCGACC | 0.0188
AGGTAAAG | 0.195
ACAGTTGA | 0.0196
CATGGACC | -0.13
ACCCCATC | -0.241
AATTACTG | 0.0636
ACTGCGCA | -0.0973
CCCATAAC | 0.0146
AGTTTATA | 0.215
CCCAGGGA | -0.285

Sequence | PBM E-score
TGGAGTAA | 0.232
CGAAATCC | 0.127
CGCTAACA | 0.00356
ACATATGC | -0.0708
CGAGTATA | 0.0822
ATATTTTA | 0.3
TCTTGCAA | 0.0947
AGACCGAC | -0.0756
GCCACCGA | -0.256
ACGTTATC | 0.00974
AGCACTGA | 0.0694
ATCCTGAC | 0.00908
AACAGCCT | -0.153
ATGGGTTA | 0.237
GGCCCGAA | -0.074
AGAGAGAT | 0.0882
CCGCTTCA | -0.0692
CAGACTTC | -0.168
AGGAGGTA | -0.0597
AGCACGCC | -0.0217
GCAGACAA | 0.148
GGTCCAAA | -0.108
ATTTTAGA | 0.0456
AGACCCAC | -0.218
ACCGCGCT | -0.0624

Sequence | PBM E-score
ACTGCGGA | -0.00461
ATCTGCAA | -0.0116
ACTCAGCT | -0.107
CCGACTGC | -0.129
AGGAACGA | -0.269
ACTCTCGC | 0.0605
AGATATGG | 0.138
CCCTGAAA | -0.0844
CCTGTAAA | -0.0517
AAAGCCAA | 0.125
CGCGAAGA | 0.0545
ACTTTTAA | 0.125
CCACGAGC | -0.158
AGTTTCCC | -0.024
GATCGGGC | -0.169
ATTCGAGG | -0.0758
CTCAACAA | 0.187
GATCCTAA | -0.0174
ATCTTTGG | 0.0693
CCAGAGGG | -0.113
ATATTACA | 0.256
GACATCCC | -0.0875
AGTCTAGC | -0.148
AATATAAA | 0.344
GAATCGTC | 0.0535

Sequence | PBM E-score
GGCAGAAC | -0.0491
CGGTTGGC | 0.0939
CTTGGTAA | 0.166
CAGTGCAG | -0.0894
CGTAGCCA | -0.182
ACGCACGC | 0.078
CTAGGTGA | -0.186
GCGCTTGA | 0.0547
AAACCTGA | 0.111
ACTGAAGG | -0.0736
ATGTACAT | 0.049
TTGGACAA | 0.0435
CGTACCAG | -0.0586
AGCCGTCA | 0.0945
AGCCACGG | -0.204
AACCATGG | -0.104
AGATCGTA | -0.183
ATGGTAAT | 0.19
CAATAATC | 0.171
AAAGGAGG | -0.206
CGAGGGCC | -0.267
ATGATCAT | 0.0795
ACGAACGT | -0.0234
CATAGACG | -0.163
AGGCCGGA | -0.0543

Sequence | PBM E-score
GATACACC | 0.209
CGGAAACA | 0.0951
GAAGTCTC | -0.188
GCGCGAGA | 0.108
CTTCTTTC | -0.035
TAGACCTA | -0.0235
CGTCAAGA | -0.0428
CTCGGATA | 0.108
GCTTAAGC | 0.18
CGTAAACC | -0.0609
TGAGGTAA | 0.0106
ATGGGGTC | -0.186
ACGTCACT | -0.0698
AGCATAGA | 0.0717
ATGCCCGA | -0.106
GATTTGGC | -0.212
CTCACTTC | -0.204
ATCGCAAT | 0.0818
CCTCTCGC | -0.297
TAATATTA | 0.342
CGGCGCAA | -0.148
CCACATAA | 0.0924
AACAGTGT | 0.0147
AGCCACAT | 0.15
CGCGACAA | 0.12

Sequence | PBM E-score
CCCATTTA | 0.104
CGACGATC | -0.0378
CACAAGCC | -0.0902
GCTATGCA | -0.0627
AGTGGAGG | -0.114
ACATGCGG | -0.0894
ATCGGAGG | 0.0321
ATTCTCAC | 0.137
ACGCCGTG | -0.0819
ACTGTAAT | 0.0614
GTACAGGA | 0.127
ATCTACTC | 0.127
CTAGAGCA | -0.171
AGAGACGC | -0.0537
CGGTTGAA | 0.0164
AGCTACTA | 0.0725
CACTTGAC | -0.0994
GACTTATC | -0.152
AAGAGCCG | -0.0657
GGGCACGA | -0.142
CGGTCCAC | -0.275
GCCCCGGC | -0.352
CATGTTAA | 0.218
GAGGAATA | 0.222
ATTAGGCC | 0.0094

Sequence | PBM E-score
ATCCCGAG | 0.0239
GGGCGACA | -0.322
AATCATCG | 0.0255
GCCGCGAC | -0.162
TAGAATGA | 0.246
GTACTACA | 0.114
ACTTTTTG | 0.196
ACCAGTCC | -0.222
ACCCAGCC | -0.28
CATGATCC | 0.0454
GCGCCGAA | -0.0138
TAGTTAAA | 0.296
GGCGGTCA | -0.284
AAAGCCGA | -0.189
CCTACCTA | -0.0809
CCGTGGGA | -0.155
CAGAGCCC | -0.18
GTCGAGAC | -0.01
TTGCCCAA | 0.0565
CGTCGTAG | -0.187
CGAGCGAA | 0.0224
CTGAACTA | 0.037
